Columns and labels:
[1] = molecular target: T1, dimeric murine CD40-L (murine, UniProt P27548 47-260); experiment: BIAcore biosensor, CD40/Fc captured by goat anti-human IgG1 Fc; first experiment; K1 (site 1)
T1 construct: the whole entry is named; also called Murine Dimer
T1 sequence: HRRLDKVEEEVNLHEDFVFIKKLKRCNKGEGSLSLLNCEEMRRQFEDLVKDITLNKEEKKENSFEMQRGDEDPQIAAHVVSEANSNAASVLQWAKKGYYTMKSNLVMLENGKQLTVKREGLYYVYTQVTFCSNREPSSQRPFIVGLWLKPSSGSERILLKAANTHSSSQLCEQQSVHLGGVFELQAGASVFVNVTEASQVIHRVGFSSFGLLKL
Procedure: (§1) This example illustrates the binding affinities of several different CD40-L constructs. Affinity experiments were conducted by biospecific interaction analysis (BIA) using a biosensor, an instrument that combines a biological recognition mechanism with a sensing device or transducer. An exemplary biosensor is BIAcore™, from Pharmacia Biosensor AB (Uppsala, Sweden; see Fägerstam L. G., Techniques in Protein Chemistry II, ed. J. J. Villafranca, Acad. Press, NY, 1991). BIAcore™ uses the optical phenomenon surface plasmon resonance (Kretschmann and Raether, Z. Naturforschung, Teil. A 23:2135, 1968) to monitor the interaction of two biological molecules.
(§2) The biosensor chips were coated with goat anti-human IgG₁ Fc, which was used to bind CD40/Fc (prepared as described in Example 1) to the chip. The different constructs of CD40-L were then added at increasing concentrations; the chip was regenerated between the different constructs by the addition of sodium hydroxide. Two separate experiments were performed. […] The resultant data were analyzed to determine the affinity and association rate constants of the different CD40-L constructs. […]

[2] = molecular target: T1, dimeric murine CD40-L; experiment: BIAcore biosensor, CD40/Fc captured by goat anti-human IgG1 Fc; first experiment; K2 (site 2)
Procedure: as §1, §2

Ka [1]: 7e+09 M⁻¹
Ka [2]: 4e+07 M⁻¹
B1: CD40/Fc fusion protein (Fc fusion, not shown: a dimerising Fc or GST)
chain: not shown
notes: extracellular domain; also called C40/Fc; CD40Fc recombinant receptor
